# The whole screen tested about 310,000 compounds, of which about 2,200 (0.71%) showed an effect of 50% or more. The effect is printed as a negative number. The list shows a part of the results.
# Molecular target: human ether-à-go-go-related gene (hERG) potassium channel (human, UniProt Q12809)
# Assay: primary screen, population patch clamp on CHO cells stably expressing hERG
# human ether-à-go-go-related gene (hERG) potassium channel, sequence (Q12809 whole entry, looked up): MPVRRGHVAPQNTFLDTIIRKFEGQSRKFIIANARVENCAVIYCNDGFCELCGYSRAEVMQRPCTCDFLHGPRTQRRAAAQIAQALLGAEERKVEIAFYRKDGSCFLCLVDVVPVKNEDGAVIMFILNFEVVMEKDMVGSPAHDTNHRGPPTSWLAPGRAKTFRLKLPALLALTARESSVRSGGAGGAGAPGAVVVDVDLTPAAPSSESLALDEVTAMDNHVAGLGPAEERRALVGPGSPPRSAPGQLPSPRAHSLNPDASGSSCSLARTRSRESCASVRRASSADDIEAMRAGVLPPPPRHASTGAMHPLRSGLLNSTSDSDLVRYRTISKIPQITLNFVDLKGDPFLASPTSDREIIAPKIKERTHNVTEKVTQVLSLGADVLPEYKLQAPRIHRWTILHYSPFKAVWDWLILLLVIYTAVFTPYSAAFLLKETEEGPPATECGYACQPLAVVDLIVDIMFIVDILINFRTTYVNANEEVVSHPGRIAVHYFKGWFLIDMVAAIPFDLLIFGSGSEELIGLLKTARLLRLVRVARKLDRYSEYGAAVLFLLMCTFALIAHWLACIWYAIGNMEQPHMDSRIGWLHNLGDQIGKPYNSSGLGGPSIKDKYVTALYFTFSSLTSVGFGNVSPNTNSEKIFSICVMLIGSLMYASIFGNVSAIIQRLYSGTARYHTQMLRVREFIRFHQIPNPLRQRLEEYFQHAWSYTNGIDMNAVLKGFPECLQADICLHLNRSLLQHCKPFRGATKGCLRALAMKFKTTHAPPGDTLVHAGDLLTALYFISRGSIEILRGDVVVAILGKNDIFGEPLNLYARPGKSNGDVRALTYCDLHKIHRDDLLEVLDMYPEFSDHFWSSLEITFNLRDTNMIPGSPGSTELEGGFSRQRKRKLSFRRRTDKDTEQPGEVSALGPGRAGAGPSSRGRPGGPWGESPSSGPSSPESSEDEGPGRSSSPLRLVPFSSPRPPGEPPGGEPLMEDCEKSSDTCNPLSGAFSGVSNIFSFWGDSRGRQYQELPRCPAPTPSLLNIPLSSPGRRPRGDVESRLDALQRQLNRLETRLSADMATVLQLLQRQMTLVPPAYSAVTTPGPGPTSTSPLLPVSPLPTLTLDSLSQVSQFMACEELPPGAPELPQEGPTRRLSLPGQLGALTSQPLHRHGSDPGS
row,SMILES,"hERG current change (%, negative = inhibition) at 1uM"
1,O=C(N/N=C/c1oc(O)c2ccccc12)c1ccccc1O,7.69%
2,Cc1cc(C)c(S(=O)(=O)Nc2cccc3nsnc23)c(C)c1,4.84%
3,Clc1ccc(CSc2nnc(-c3cccnc3)o2)cc1,0.623%
4,COc1cc(NC(C)CCCN)c2ncccc2c1.O=P(O)(O)O (stereo not drawn),7.15%
5,Cn1c(SCn2nnc3ccccc3c2=O)nc2ccccc2c1=O,18.4%
6,Cc1cccnc1NC(=O)c1ccc2c(c1)OCCO2,12.3%
7,O=C(CN1CCN(c2ccccc2F)CC1)c1ccc(O)c(O)c1,-16.6%
8,Cc1nn(-c2ccccc2)c(C)c1C(=O)OCC(=O)NC12CC3CC(CC(C3)C1)C2,13.2%
9,Cc1nnc(SCC(=O)NC2CC2)n1CC1CCCO1 (stereo not drawn),9.24%
10,CC(=O)N(Cc1cc(=O)[nH]c2ccccc12)c1ccc(C)cc1C,13%
11,CCCN1C(=O)N(c2cccc(C)c2)C(C)(O)CC1(C)C (stereo not drawn),8.46%
12,O=C(COC(=O)/C=C/c1ccco1)Nc1cccc([N+](=O)[O-])c1,20.3%
13,O=C(COC(=O)c1c2c(nc3ccccc13)CCN(Cc1ccccc1)C2)Nc1c(F)cccc1F,-20.2%
14,Cc1[nH]c2ccccc2c1/C=N/NC(=O)CNC(=O)COc1ccccc1,20.7%
15,CC([NH2+][O-])C(C)(C)NO.[Cl-] (stereo not drawn),4.02%
16,O=S(=O)(c1ccc(S(=O)(=O)N2CCCC2)cc1)N1CCCCC1,12.8%
17,CCc1sc(C(=O)Nc2ncccc2C)cc1C,17.3%
18,O=S(=O)(Nc1cccc(CO)c1)c1cccs1,6.77%
19,Cc1ccc(S(=O)(=O)NCCn2cnc([N+](=O)[O-])n2)cc1,12.2%

row,SMILES,"hERG current change (%, negative = inhibition) at 1uM"
1,N#CC1(c2ccccc2)CCCN1C(=O)c1ccc(Br)cc1 (stereo not drawn),0.778%
2,O=C(COc1ccccc1[N+](=O)[O-])N1CCN(S(=O)(=O)c2ccccc2)CC1,-10.5%
3,Cc1cccc(-c2nc(CS(=O)CC(=O)N3CC(C)CC(C)C3)c(C)o2)c1 (stereo not drawn),0.514%
4,Cn1ccnc1SCC(=O)Nc1ccc2nc(SCC(=O)NC3CC3)sc2c1,7%
5,Cc1ccc(C2(C)NC(=O)N(CC(=O)Nc3ccccc3C(=O)NC3CCCC3)C2=O)cc1 (stereo not drawn),-2.04%
6,O=C(O)CC[N+](=O)[O-],15.1%
7,O=C(C[n+]1ccc(/C=N/O)cc1)NCc1ccccc1.[Cl-],8.7%
8,COc1ccc(N2C(=O)c3ccccc3NC2c2cccnc2)cc1 (stereo not drawn),17.5%
9,CC1Cc2nc(SCC(=O)NCC3CCCO3)n(Cc3ccccc3)c(=O)c2S1 (stereo not drawn),-4.07%
10,CC(=O)c1ccc(S(=O)(=O)NC2CCCCCCC2)cc1,12.4%
11,OC(CN1CCN(c2ccccc2)CC1)c1c[nH]c2ccccc12 (stereo not drawn),-13.8%
12,O=S(=O)(NCC1CCCO1)c1cccc(S(=O)(=O)N2CCCC2)c1 (stereo not drawn),-1.28%
13,CCC1(c2ccc(F)cc2)NC(=O)N(CC(=O)N2CCN(S(=O)(=O)c3ccc(Cl)cc3)CC2)C1=O (stereo not drawn),10%
14,COc1ccc(-c2cccc(NS(=O)(=O)c3ccccc3[N+](=O)[O-])c2)nn1,14.2%
15,Cn1ccnc1C1CCCCN1Cc1nc(Cc2ccccc2F)no1 (stereo not drawn),2.45%
16,COC(=O)c1ccccc1OCc1cccc(C)n1,7.79%
17,CCCCCC(=O)Nc1ncc2c(n1)CC(c1cccs1)CC2=O (stereo not drawn),-9.38%
18,CCN(CC)Cc1c(O)ccc2c(=O)c(-c3ccccc3)coc12.Cl,11.8%
19,N#CCCN1CCCc2cc(N=Nc3ccc(C(F)(F)F)cc3)ccc21,14.6%

row,SMILES,"hERG current change (%, negative = inhibition) at 1uM"
1,O=[N+]([O-])c1ccc(Oc2cccc3cccnc23)c(Cl)c1,10.5%
2,Cc1cccc(NC(=O)CN2C(=O)S/C(=C\C(=O)Nc3ccc(Cl)cc3)C2=O)c1,5.18%
3,Cc1cc(C)n(Cc2cnc(N3CCOCC3)s2)n1,10.9%
4,Cc1nn(C(=O)C2CC2)c(C)c1Sc1ccc(Cl)cc1,16.5%
5,O=c1cc(Nc2ccc3c(c2)OCCO3)[nH]c(=O)n1C1CCCCC1,7.69%
6,Cc1ccc(S(=O)(=O)NC(=O)c2cc(C)n(CCCn3ccnc3)c2C)cc1,4.9%
7,O=C(COc1ccc(S(=O)(=O)NC2CCCC2)cc1)N1CCCCC1,18.2%
8,FC(F)(F)c1nnc2c(Sc3ccccn3)nc3ccccc3n12,6.66%
9,NC(=O)COC(=O)c1cc(-c2ccco2)nc2ccccc12,8.34%
10,CCc1cccc(CC)c1N(COC)C(=O)Cn1c(CO)nc2ccccc21,8.47%
11,COc1ccc(/C=N/NC(=O)c2ccccc2O)cc1Cn1cc([N+](=O)[O-])cn1,12.9%
12,O=C(NC1CCC(=O)N(CCSc2ccccc2)CC1)OCc1ccccc1 (stereo not drawn),-4.41%
13,O=C(N/N=C/c1ccc([N+](=O)[O-])cc1)c1ccc2nc[nH]c2c1,14%
14,CC(C)Cn1c(CCCNC(=O)c2ccc(F)cc2)nc2ccccc21,-4.62%
15,CN(C)CCN1C(=O)C(O)=C(C(=O)c2cc3ccccc3o2)C1c1cccc(Br)c1 (stereo not drawn),19.9%
16,Cc1cccc(Nc2nc(N)c([N+](=O)[O-])c(N3CCOCC3)n2)c1,-15.5%
17,COC(CNC(=O)C1CCN(C(=O)c2cc3oc(C)cc3n2Cc2c(F)cccc2Cl)CC1)OC,16.8%
18,CCOc1ccccc1C(=O)N1CCN(C(c2ccccc2)c2ccccc2)CC1,10.4%
19,O=[N+]([O-])c1ccc(N2CCN(S(=O)(=O)c3ccc(Cl)c(Cl)c3)CC2)cc1NCCN1CCOCC1,8.57%

# Reference: paper PMC4336329 (PLoS ONE, 2015)
